Results published in PubChem BioAssay AID504466 (National Center for Advancing Translational Sciences (NCATS), 2011).
Among all 330,000 compounds or so, about 4,200 (1.3%) were called active. Inconclusive results, whose numbers are uncertain, are shown with a selection of clear calls. Calls follow the shape of the dose curve; as a rule, active = well fitted activation curve with a large enough effect; inconclusive = small, poorly fitted or top-dose-only effect; inactive = no such curve, though single readings can be large or run the other way. Potencies beside an inconclusive call are fits to weak or partial responses and may not hold up.
Potency is read from the fitted curve at half-maximal effect; tags tell the direction and shape of the fitted curve.

Test: qHTS screen for small molecules that induce genotoxicity in human embryonic kidney (HEK293T) cells expressing luciferase-tagged ELG1; also: nearly all actives have a fitted effect of over 60% in size
Settings: HEK293T ELG1-luciferase reporter, luminescence, 16 h; series mostly up to 46 µM
Summary of the method: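 16 hr compound incubation (37 °C, 5% CO2) of HEK293T cells carrying luciferase-tagged ELG1; luciferase then measured by ONE-Glo luminescence after 30 min at RT.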
In the case of `CCCCC(=O)Nc1sc2c(c1C(N)=O)CCC2`, the Potency is reported as inconclusive: 11.6 µM [activator, partial curve]. With `CCC(CO)NCc1cc(OC)c(OCC(=O)NCCc2ccccc2)cc1Br` (stereo unspecified) the Potency was “inactive”. In the case of `c1ccc(-c2csc(-n3cccn3)n2)cc1`, the Potency is reported as “inactive”. In the case of `CCOc1ccc(N/C(N)=N/c2nc(CSc3nnnn3-c3ccccc3)cc(=O)[nH]2)cc1`, the Potency is reported as “inactive”. In the case of `CNC(=O)c1cc(Nc2nnc(C)c3ccccc23)ccc1OC`, the Potency is reported as inconclusive: 16.4 µM [activator, partial curve, poor fit]. With `CCOC(=O)c1sc(NC(=O)Nc2ccc(Cl)cc2)cc1C` the Potency was inconclusive: 13 µM [activator, partial curve, poor fit]. For `N#CC1=C(SCC(=O)Nc2nccs2)NC(=O)CC1c1ccccc1` (stereo unspecified), the Potency was inconclusive: 35.5 µM [activator, single point]. In the case of `Cc1cc(C(=O)COC(=O)c2cccnc2Cl)c(C)n1C`, the Potency is reported as inconclusive: 0.517 µM [activator, full curve]. In the case of `CCOC(=O)Cc1nnc(-c2ccccc2)o1`, the Potency is reported as “inactive”. With `Cc1ccc(C)n1-c1sc2c(c1C#N)CCCC2` the Potency was inconclusive: 20.6 µM [activator, partial curve, poor fit]. In the case of `O=C(NN1CCOCC1)c1cc(-c2ccc(Cl)c(Cl)c2)nc2ccccc12`, the Potency is reported as “inactive”. With `CSc1ccccc1C(=O)N1CCc2ccccc2C1` the Potency was “inactive”. For `O=c1[nH]c(CCl)nc2cc(-c3ccc(F)cc3)sc12`, the Potency was inconclusive: 3.26 µM [activator, single point]. With `Nc1c(C(=O)Nc2cccc(C(=O)O)c2)sc2nc3c(cc12)CCCC3` the Potency was inconclusive: 0.146 µM [activator, partial curve, poor fit]. With `Fc1ccc(/C=N/NC(=S)Nc2cccnc2)cc1` the Potency was active: 23.1 µM. For `C/C(=N\NC(=O)c1ccccc1)c1ccc(NC(=O)c2cccs2)cc1`, the Potency was inconclusive: 18.4 µM [activator, partial curve, poor fit]. In the case of `CN(c1cc(=O)n2ccccc2n1)C1CCCCC1`, the Potency is reported as inconclusive: 18.4 µM [activator, partial curve, poor fit]. With `N#C/C(=C\c1ccc(O)c(O)c1)C(=O)NCCc1ccccc1` the Potency was inconclusive: 16.4 µM [activator, single point]. For `COc1ccc(C(=O)c2ccc(N(C)C)cc2)c2ccccc12`, the Potency was inconclusive: 23.1 µM [activator, single point]. For `COc1ccc(NC(=O)Nc2nnc(-c3ccco3)s2)cc1`, the Potency was inconclusive: 2.31 µM [activator, full curve]. In the case of `COc1cccc(OCCn2cc(C(C)=O)c3ccccc32)c1`, the Potency is reported as inconclusive: 20.6 µM [activator, partial curve, poor fit]. For `Cc1cccc(NC(=O)CN(CC2CCCO2)C(=O)c2oc3ccccc3c2C)c1C` (stereo unspecified), the Potency was “inactive”. In the case of `O=C1NC2(CCOc3ccccc32)C(=O)N1CC(=O)N(Cc1ccccc1)C1CCS(=O)(=O)C1` (stereo unspecified), the Potency is reported as inconclusive: 23.1 µM [activator, partial curve, poor fit]. With `Fc1cccc2sc(Nc3nnc(-c4ccccc4)o3)nc12` the Potency was inconclusive: 9.2 µM [activator, partial curve, poor fit]. In the case of `Cc1ccc(-n2nc3ccc(NC(=O)c4ccco4)cc3n2)cc1`, the Potency is reported as active: 14.6 µM. In the case of `O=C(Nc1ccc(Cl)cc1)Nc1cccc2nsnc12`, the Potency is reported as inconclusive: 2.59 µM [activator, full curve, poor fit]. With `COc1ncccc1-c1nnn(-c2ccc(Cl)c(Cl)c2)n1` the Potency was inconclusive: 14.6 µM [activator, partial curve]. In the case of `Oc1ccc(C2=Nn3c(nnc3-c3ccco3)SC2)cc1O`, the Potency is reported as inconclusive: 20.6 µM [activator, partial curve, poor fit]. With `O=C(O)c1ccc(N/N=C/c2c[nH]c3ccccc23)cc1` the Potency was inconclusive: 0.326 µM [activator, full curve, poor fit]. With `Cc1ccccc1C(=O)Nc1nnc(-c2ccc(C(C)(C)C)cc2)s1` the Potency was inconclusive: 25.9 µM [activator, partial curve, poor fit]. For `COc1ccc2oc(=N)c(C(=O)Nc3ccccc3)cc2c1`, the Potency was inconclusive: 3.66 µM [activator, full curve]. For `Cc1cc(NC(=O)C2CC2)ncc1NC(=O)c1ccccn1`, the Potency was inconclusive: 18.3 µM [activator, partial curve]. In the case of `CC1(c2ccc3c(c2)OCCO3)NC(=O)N(CC(=O)Nc2ccccc2F)C1=O` (stereo unspecified), the Potency is reported as “inactive”. In the case of `COc1ccc(OCc2nnc(SCC(=O)Nc3ccc(C)cc3)o2)cc1`, the Potency is reported as “inactive”. For `COc1ccc(CCNC(=S)N2CCN(S(=O)(=O)c3ccc(C)cc3)CC2)cc1`, the Potency was “inactive”. With `O=C(c1cc2cc(Br)cc(Br)c2oc1=O)N1CCCC1` the Potency was “inactive”. With `Nc1cccc(-c2cc3ccccc3oc2=O)c1` the Potency was inconclusive: 7.3 µM [activator, partial curve]. With `CC(=O)c1c(C)[nH]c(C(=O)Nc2ccc(C)c(C)c2)c1C` the Potency was active: 10.3 µM. In the case of `COC(=O)c1ccc(Oc2cc(C)nc(-n3nc(C)cc3C)n2)cc1`, the Potency is reported as inconclusive: 2.59 µM [activator, full curve, poor fit]. In the case of `Cc1ccc(NC(=S)N2CCCCCC2)cc1`, the Potency is reported as inconclusive: 18.3 µM [activator, partial curve, poor fit]. In the case of `COc1ccc(O)c(-c2cc(-c3cccc(Br)c3)n[nH]2)c1`, the Potency is reported as active: 20.6 µM. In the case of `COc1ccc(NC(=O)Nc2ccccn2)cc1OC`, the Potency is reported as inconclusive: 18.3 µM [activator, partial curve, poor fit]. With `COc1cc(/C=N/Nc2ccc(C(=O)O)cc2)ccc1O` the Potency was inconclusive: 2.06 µM [activator, partial curve]. With `Cc1c(N=Cc2nc3ccccc3n2C)c(=O)n(-c2ccccc2)n1C` the Potency was inconclusive: 29.1 µM [activator, partial curve, poor fit]. In the case of `CN1c2ccccc2Oc2nnc(N3CCN(Cc4ccccc4)CC3)cc21`, the Potency is reported as “inactive”. With `COc1ccc(Oc2nc(OC)cc(OC)n2)cc1` the Potency was “inactive”. For `COc1ccc(-c2noc(N3CCC(C(=O)Nc4ccccc4OC)CC3)n2)cc1`, the Potency was “inactive”. With `Cc1ccc(NC(=O)NC(=O)COc2ccccc2C(N)=O)c(C)c1` the Potency was “inactive”. With `COc1ccccc1Nc1ncnc2c1c(C)c(C)n2CCCN(C)C` the Potency was inconclusive: 23.1 µM [activator, single point]. With `O=C(NNS(=O)(=O)c1ccc2ccccc2c1)c1cccs1` the Potency was “inactive”. For `O=C(COC(=O)c1ccco1)c1ccc(F)cc1`, the Potency was inconclusive: 16.4 µM [activator, partial curve, poor fit]. With `CCCN1C(=O)S/C(=C/c2ccc(N3CCOCC3)o2)C1=O` the Potency was inconclusive: 25.9 µM [activator, partial curve, poor fit]. For `Cc1ccc2nc(-c3cccnc3)oc2c1`, the Potency was inconclusive: 14.6 µM [activator, partial curve]. For `Cc1cc(O)cc2c1C(=O)/C(=C/c1ccco1)O2`, the Potency was “inactive”. In the case of `COc1ccc(C(=O)N/N=C(\c2ccccc2)c2ccccn2)cc1`, the Potency is reported as inconclusive: 20.6 µM [activator, single point]. For `CCc1sc(C(=O)Nc2ccc3c(c2)OCO3)cc1C`, the Potency was inconclusive: 3.26 µM [activator, partial curve]. In the case of `CC(=O)Oc1c(Br)cc(N(C(C)=O)S(=O)(=O)c2ccccc2)c2ccccc12`, the Potency is reported as “inactive”. In the case of `CCCOC(=O)c1ccc(NC(=O)C2CCCO2)cc1` (stereo unspecified), the Potency is reported as inconclusive: 16.4 µM [activator, partial curve, poor fit]. In the case of `Oc1ccc(/C=N/Nc2nccnc2Cl)c(O)c1`, the Potency is reported as inconclusive: 9.2 µM [activator, partial curve, poor fit]. With `Cc1ccc(S(=O)(=O)N2CCC[C@H]2C(=O)OCC(=O)N2CCc3ccccc32)cc1` the Potency was “inactive”. For `O=[N+]([O-])c1ccc2ncnc(N3CCN(Cc4ccc5c(c4)OCO5)CC3)c2c1`, the Potency was “inactive”. In the case of `Cc1ccc(Nc2ncc3c(n2)CC(C)(C)CC3=O)cc1`, the Potency is reported as inconclusive: 2.06 µM [activator, full curve]. In the case of `O=C(COc1ccccc1F)N/N=C1\CCCc2ccccc21`, the Potency is reported as inconclusive: 9.2 µM [activator, partial curve]. For `Cc1cnc(NCCc2ccccc2)s1`, the Potency was “inactive”. With `Cc1onc(-c2ccccc2)c1C(=O)NC(=S)NNC(=O)c1ccncc1` the Potency was “inactive”. With `Cc1ccc(C)c(-c2nc3cc(N)ccc3o2)c1` the Potency was active: 10.3 µM. With `Cc1cc(/C=C\c2ccc3cc(N(C)C)ccc3[n+]2C)c(C)n1-c1ccccc1` the Potency was inconclusive: 2.31 µM [activator, single point]. For `O=C(/C=C/c1ccc(N2CCOCC2)cc1)c1ccccc1`, the Potency was inconclusive: 18.3 µM [activator, partial curve]. With `O=C(Nc1cccs1)Nc1ccccc1Cl` the Potency was inconclusive: 13 µM [activator, partial curve, poor fit]. With `O=C(NCc1ccco1)c1ccccc1SCC(=O)N1CCCC1` the Potency was “inactive”. With `CC(C)Cc1cc(C(=O)Nc2cc(Br)ccc2O)no1` the Potency was active: 8.2 µM. In the case of `CCOC(=O)c1nnn2c1nc(Nc1cccc(C(F)(F)F)c1)c1ccccc12`, the Potency is reported as “inactive”. For `N#Cc1ncc(Cl)c2ccccc12`, the Potency was “inactive”. With `CCOC(=O)C(C(=O)OCC)N(C#N)c1nc(OC)nc(N(C)C)n1` the Potency was “inactive”. In the case of `O=C(N/N=C/c1c(Cl)[nH]c2ccccc12)c1ccc2c(c1)OCCO2`, the Potency is reported as inconclusive: 7.3 µM [activator, partial curve, poor fit]. For `Cc1cc(C(=O)NNC(=S)NC(=O)/C=C/c2ccccc2Cl)n[nH]1`, the Potency was “inactive”.
